The values below come from paper PMC12136788.

The labels stand for the following.
B1: chr17:29166540:29166641:-|CDS|ENSG00000196535|unk|FALSE|unique (ssRNA)
RNA: GGGAGUUCUACAGUCCGACGAUCCUGGACUCGGGCCACCUAAGUACAGCCAGCUCCAGCGAUGACCUCAAGGGUGAGGAGGGUAGCUUCCGUGGCUCGGUGCUGCAGCGGGCAGCCAAGUUCGGCUCACUGGCCAAGCAGAACCAACAGAGGAUUGAGCAUCA
B2: chr7:6403675:6403689:+|3pUTR|ENSG00000136238|msi1_unk|total|mutant (ssRNA)
RNA: GGGAGUUCUACAGUCCGACGAUCACUGUCACUUGACCAAUACUGACCCUCUUUACCUCGCCCACGCGGACACACGCCUCCUGCCGUCGCUUUGCCUAUUGAUGUUCCUUUGGGUCUGUGAGGUUCUGUAAACUGUGCCCGUGCCAACAGAGGAUUGAGCAUCA
B3: chr2:158176520:158176661:-|CDS|ENSG00000153237|control|control|control (ssRNA)
RNA: GGGAGUUCUACAGUCCGACGAUCGCUGUUGUUGCUCAAUUUGAUCCUGUUAGAAUGAUGUCAGAUACAAUGGCAUCAAAAGCUAGAAUGGGCAUUGAAAUUGAAGAAGAAUUUAUUCUUCAAAAGCCACUCUUCACAUUGAAUCAACAGAGGAUUGAGCAUCA
B4: chr7:137014887:137014989:+|CDS|ENSG00000181072|unk|FALSE|unique (ssRNA)
RNA: GGGAGUUCUACAGUCCGACGAUCGCUACUUGGCUACUGAUUAGAGAACGCAAAAUGAAUAACUCAACAAACUCCUCUAACAAUAGCCUGGCUCUUACAAGUCCUUAUAAGACAUUUGAAGUGGUGUUUAUUGUCCUGGUGGCUCAACAGAGGAUUGAGCAUCA
B5: chr4:110049619:110049852:-|3pUTR|ENSG00000170522|msi1|total|mutant (ssRNA)
RNA: GGGAGUUCUACAGUCCGACGAUCUUGUUCAAUGUGACAUAACCGUAUUAUAAUUGGUUAAGCCGCUUAAUGAUCCGGCAAACCCGAUGAAAAGAUCCGGGGCUUCCACACUGCACCGAUUACACGCACACCGCCACGCAUACACAACAGAGGAUUGAGCAUCA
B6: chr17:80295660:80295761:+|CDS|ENSG00000173821|msi1|total|mutant (ssRNA)
RNA: GGGAGUUCUACAGUCCGACGAUCGAGUAAACUGAAAACAGGCCUGAUUGUCCUUUUUGCCGUGGAAAAAAUUGAGCUUUUAUCCGAAGGCAGCCUGGACUGGUUGUGUCACCUCCUAACCUCAGAUGCCAGCUCACCAGAUGACAACAGAGGAUUGAGCAUCA
B7: chr4:70689993:70690094:+|CDS|ENSG00000132467|unk|FALSE|unique (ssRNA)
RNA: GGGAGUUCUACAGUCCGACGAUCAGAGCCAAAAUUAGAAGAAGAGGCCAGGUUCGUGAAGUUCGUAAAGAAGAGCAACGUUAUAGUGGUGAAUUAUCUGGCAUUCGUGCAGGAGUUAAAAAGAGCAUUAAGCUUAAAUGAAGUCAACAGAGGAUUGAGCAUCA
B8: chr5:56893553:56893673:+|CDS|ENSG00000095015|unk|total|mutant (ssRNA)
RNA: GGGAGUUCUACAGUCCGACGAUCUGCUCCAUCGAUCCCUUCACAUUUGUCUCCUGGUUUACGAGAUGUGGCUCUUCGUUGUUCCGAACUUCAACCUCAGGACAGACCUCCAUCAAGAGAGCUACUGAAGCAUCCAGUCUUUCGCAACAGAGGAUUGAGCAUCA
B9: chr7:101137743:101137929:+|3pUTR|ENSG00000106366|msi1|total|mutant (ssRNA)
RNA: GGGAGUUCUACAGUCCGACGAUCCCACUGAGGCCCUUUGCAGGAUGGAACUACGGGGCUUACAGGAGCUUUUGUGUGCCUGGCCGAAACUAUUUCUGUUCCAGUCACAUUGCCAUCACUCUUGUACUGCCUGCCACCGCGGAGCAACAGAGGAUUGAGCAUCA
B10: chr2:147927148:147927248:+|CDS|ENSG00000121989|msi1_unk|FALSE|overlapping (ssRNA)
RNA: GGGAGUUCUACAGUCCGACGAUCUGAAACCAUUGAAGAAUGUUGGGAUCACGACGCAGAAGCCAGGUUAUCAGCUGGAUGUGUAGGUGAAAGAAUUACCCAGAUGCAGAGACUAACAAAUAUUAUUACCACAGAGGACAUUGUCAACAGAGGAUUGAGCAUCA
B11: chr2:1633339:1633490:-|3pUTR|ENSG00000130508|msi1|total|mutant (ssRNA)
RNA: GGGAGUUCUACAGUCCGACGAUCUUCAUAAGCCACAUUCCGAAACAGGUUUGCUUUCAGCUGUCACUUGCACACAUACUGCCCCGUUGUGAACCAAAUGUGAAAAAACCUCCUUCAUCCCAUUGUGUAUCUGAUACCUGCCGACAACAGAGGAUUGAGCAUCA
B12: chr2:135840511:135840612:-|3pUTR|ENSG00000076003|msi1|total|mutant (ssRNA)
RNA: GGGAGUUCUACAGUCCGACGAUCGCUUCAGCACUUCCUUUGGUGUGUUUCCUGUCCCAGUGAAGUUGGAACCAAAUAAUGUGCCGUCUCUAUAACCAAUACCUUUGUUUUCAUGUGUAAGAAAAGGCCCAUUACUUUUAAGGUCAACAGAGGAUUGAGCAUCA
B13: ENSG00000198589:be:win_1401|CDS|ENSG00000198589|bound_else_gene|NA|bound_elsewhere_windowed (ssRNA)
RNA: GGGAGUUCUACAGUCCGACGAUCGCAUUCAAUUGGAGGAGUACAAGUACUAUUUCCACUUUUUGCACAGUUGGAUUACAGGCAAUAUUUGUCUGAUGAGAUUGAUUUGACUAUAUGUUCAACCUUGCUGGCCUUUAUCAUGGACAACAGAGGAUUGAGCAUCA
B14: chr7:124031896:124032004:-|CDS|ENSG00000234224|unk|total|mutant (ssRNA)
RNA: GGGAGUUCUACAGUCCGACGAUCUACCCGCUCAAUUUUAUGGGCCUCAUCACCCUGAUGUAUUUACCUGGCUGGAUAUUCCUCCGUGUGUACCAGGACCUAAUUUCCAACGUGUUGUGGAGGGUGCAGUACGUACCAGCUAACCAACAGAGGAUUGAGCAUCA
B15: chr12:20680103:20680206:+|CDS|ENSG00000172572|unk|total|mutant (ssRNA)
RNA: GGGAGUUCUACAGUCCGACGAUCCUUACAGAACCACAAGAUGUGGAAGAAAGUCAUUGAAGAGGAGCAACGGUUGGCAGGCACCGAAAAUCAAUCCCUGGACCAGACCCCUCAGUCGCACUCUUCAGAACAGAUCCAGGCUAUCAACAGAGGAUUGAGCAUCA
B16: chr9:127749210:127749665:-|CDS|ENSG00000095370|control|control|control (ssRNA)
RNA: GGGAGUUCUACAGUCCGACGAUCUUCCCACUGCGCUACCUCGAGGCCAGCUAUGGCCUGGGACAGGGGAGUAGCAAGCCUGCUAGCCCCGUCAGCCCCUCAGGCCCCAAGGGCAGCCACAUGAAGCGGCGCAGCGUCACCAUGCAACAGAGGAUUGAGCAUCA
B17: chr9:37357341:37357442:+|3pUTR|ENSG00000147905|unk|FALSE|unique (ssRNA)
RNA: GGGAGUUCUACAGUCCGACGAUCAUUAUCUAUGAUUAAAUAAAGUGAGUUUUUGGUUUUGUUUUUUUAAUUUCAGCCAUUCCUAGAGUUACUGAAUAUCCAUGGAGAUCUCAAUUCUCUGUGUCCAACAGGAUAUUAGGUAAGCAACAGAGGAUUGAGCAUCA
B18: chrX:130230552:130230660:-|CDS|ENSG00000056277|unk|total|mutant (ssRNA)
RNA: GGGAGUUCUACAGUCCGACGAUCAUCAGAACGUCCAUGUGAUGAAGACAAGACUGAUUCAGAGACAGGAAAGUUGAUCAUGUCCGUCAAUGAGUUUUAUUAUGGAAGGCAUGAAGGAGUCACUGAGAAAGAGCCAAAGACUUACAACAGAGGAUUGAGCAUCA
B19: ENSG00000142634:stop:overlap|stop_codon|ENSG00000142634|stop_codon|NA|stop_codon (ssRNA)
RNA: GGGAGUUCUACAGUCCGACGAUCAGGCGGAGGAGAUGAAGCAGCGGAAAGCGGCCUUCAAGGAGCUGCAGUCCACCUUUAAGUAGCGGGGGCUGCAGCCGACCGCCCUGCUCCGGCCCCAGUGUGGUGGGCGAGGGUGGCGCACAACAGAGGAUUGAGCAUCA
B20: chr22:35295155:35295256:+|3pUTR|ENSG00000100281|unk|FALSE|unique (ssRNA)
RNA: GGGAGUUCUACAGUCCGACGAUCUUUCUUCUCCUGGCCCUGACAGAGCACUACAGCAUCAAAGUAAAUCUUUGGGGACAGUGUAGCCCAUCUGCAUCCUAUUUAAUUUCUUCCCUUCUCCCCACCAGUGUUGUCACAGGGCUACAACAGAGGAUUGAGCAUCA
B21: chr14:44924370:44924471:-|3pUTR|ENSG00000179454|unk|FALSE|unique (ssRNA)
RNA: GGGAGUUCUACAGUCCGACGAUCACCUUUUUAGCAUCAGGGUUUUAUUUUAUUUAUGUUUACACACUAAAGUGUCAUUUAACUAGUUAAGAAUUGUAUUCUUUUUUAUUUUAAAGGUUAUUUGUGUGUAUCAUUGUGGUAAUGCAACAGAGGAUUGAGCAUCA
B22: chr16:2602459:2602560:+|3pUTR|ENSG00000140992|msi1|FALSE|bound_elsewhere (ssRNA)
RNA: GGGAGUUCUACAGUCCGACGAUCAACUAUGUACAGAGAACUUUUUACAAAAGGCAGACCUUUUUUAAGCUGUGUAACCCACAUAGCCUAACCACCUGGCAGAAUGACUACGAAUAGGGGUCAUUGUGCUGGUAAAAGCCUCUACAACAGAGGAUUGAGCAUCA

This is one part of the list.

This assay has as its target T1, UNK ZnF1-6 (called full-length) (human, UniProt Q9C0B0 30-357).
T1 sequence: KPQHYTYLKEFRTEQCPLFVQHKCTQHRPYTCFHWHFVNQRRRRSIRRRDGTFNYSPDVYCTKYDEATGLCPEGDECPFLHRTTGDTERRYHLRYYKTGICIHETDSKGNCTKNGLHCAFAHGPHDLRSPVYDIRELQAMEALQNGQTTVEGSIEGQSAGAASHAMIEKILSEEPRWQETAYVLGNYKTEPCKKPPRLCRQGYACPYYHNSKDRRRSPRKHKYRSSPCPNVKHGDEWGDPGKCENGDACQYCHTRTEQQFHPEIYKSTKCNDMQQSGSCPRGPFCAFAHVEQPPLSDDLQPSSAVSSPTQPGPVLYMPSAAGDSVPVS
The assay can be described thus: nsRBNS (natural sequence RNA bind-n-seq); RBNS binding buffer (assumed for nsRBNS): 25 mM Tris pH 7.5, 150 mM KCl, 3 mM MgCl2, 0.01% Triton X-100, 500 ug/ml BSA, 20 U/ml SUPERase-In, 4 C; UNK is unkempt and MSI1 is Musashi-1; names of the RNAs are library labels; protein concentration not given here; high values mean tight binding.
Molecule B1 returned a binding signal of 0.93 enrichment R.

In turn, B2 had a binding signal of 0.597 enrichment R.

In turn, B3 returned a binding signal of 0.521 enrichment R.

B4 showed a binding signal of 0.223 enrichment R.

Molecule B5 returned a binding signal of 0.566 enrichment R.

Turning to B6, the binding signal amounted to 0.495 enrichment R.

As to B7, the binding signal was found to be 1.05 enrichment R.

Regarding B8, the binding signal came out at 0.512 enrichment R.

With B9, the binding signal came to 0.534 enrichment R.

For B10, the binding signal came out at 0.926 enrichment R.

Regarding B11, the binding signal came to 0.45 enrichment R.

In turn, B12 displayed a binding signal of 0.309 enrichment R.

On to B13, for which the binding signal is 0.278 enrichment R.

As for B14, the binding signal stood at 0.655 enrichment R.

With B15, the binding signal turned out to be 0.725 enrichment R.

As to B16, the binding signal is 0.643 enrichment R.

B17 gave a binding signal of 0.516 enrichment R.

In turn, B18 showed a binding signal of 0.608 enrichment R.

B19: the binding signal was 1.43 enrichment R.

In turn, B20 yielded a binding signal of 1.07 enrichment R.

On to B21, for which the binding signal was 1.29 enrichment R.

Consider B22, for which the binding signal was 0.398 enrichment R.
